Measured values published in a collection of fitness landscapes (doi:10.1016/j.celrep.2020.107928).
In all, about 81,000 sequences were measured (“one-hybrid fitness for binding NBS DNA”: median about -0.1, highest 2% from about 0.36 on). This is one part of the list.

B1: Caulobacter ParB omega fusion; a variant is named by its letters at X, in order, B8GW30 (parent)
chain: MESVVVGEPGMSEGRRGLGRGLSALLGEVDAAPAQAPGEQLGGSREAPIEILQRNPDQPRRTFREEDLEDLSNSIREKGVLQPILVRPSPDTAGEYQIVAGERAWRAAQRAGLKTVPIMVRELDDLAVLEIGIIENVQRADLNVLEEALSYKVLMEKFERTQENIAQTIGKSXSHVANXMRLLXLPDEVQSYLVSGELTAXHARAIAAAADPVALAKQIIEGGLSVRETEALARKAPNLSAGKSKGGRPPRVKDTDTQALESDLSSVLGLDVSIDHRGSTGTLTITYATLEQLDDLCNRLTRGI

Variants of: B1
Assay: one-hybrid fitness for binding NBS DNA (the Noc-binding site; scaled: cognate 1, non-cognate 0); higher = stronger binding
Settings: with NBS DNA site
Procedure, shortened: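 On M9-minus-histidine containing 0.1 mM IPTG and 5 mM 3-AT, E. coli USO cells with a HIS3 reporter, site 19 bp from the promoter, grew 48 hours at 37°C to select Caulobacter ParB libraries randomised at four specificity codons. Plasmids from before and after were Illumina-sequenced, with three replicate libraries pooled and variants under 10 reads left out. Fitness is the log change in variant-to-wild-type read ratio, rescaled against cognate and non-cognate.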

Variant	one-hybrid fitness for binding NBS DNA
HVRV	≤ 0.2
QHYL	≤ 0.2
KDQA	≤ 0.2
PTAW	≤ 0.2
ASFV	≤ 0.2
CIMC	≤ 0.2
TIQL	≤ 0.2
QLRV	0.337
PVVM	≤ 0.2
MTEN	≤ 0.2
AGTQ	≤ 0.2
SCLH	≤ 0.2
IEFV	≤ 0.2
PSPT	≤ 0.2
WLAV	≤ 0.2
EPAD	≤ 0.2
MAIG	≤ 0.2
PGSY	≤ 0.2
PRKT	0.3
QVTH	≤ 0.2
HGDH	≤ 0.2
FRHT	≤ 0.2
APTL	≤ 0.2
LRFY	≤ 0.2

Variant	one-hybrid fitness for binding NBS DNA
FPAC	≤ 0.2
FSSA	≤ 0.2
QAKN	0.356
FDPN	≤ 0.2
NLLE	≤ 0.2
FHLS	≤ 0.2
LRAM	≤ 0.2
RGWA	≤ 0.2
GRLR	≤ 0.2
KQIR	≤ 0.2
CKWT	≤ 0.2
ADDR	≤ 0.2
IDHR	≤ 0.2
QEEC	≤ 0.2
WNGT	≤ 0.2
YVKY	≤ 0.2
RNTC	≤ 0.2
RVEE	≤ 0.2
QGMS	≤ 0.2
RPRP	≤ 0.2
LIFR	≤ 0.2
YRRP	≤ 0.2
AAVE	≤ 0.2
NTLV	≤ 0.2

Variant	one-hybrid fitness for binding NBS DNA
CDST	≤ 0.2
FDCR	≤ 0.2
RPRN	≤ 0.2
CRGC	≤ 0.2
WFYS	≤ 0.2
EATC	≤ 0.2
PPTM	≤ 0.2
LIHG	≤ 0.2
RHDC	≤ 0.2
ICLS	≤ 0.2
PKIM	≤ 0.2
NSDF	≤ 0.2
PWTG	≤ 0.2
TMMV	≤ 0.2
DMHT	≤ 0.2
FYCT	≤ 0.2
PAWC	≤ 0.2
THRV	≤ 0.2
LQPH	≤ 0.2
RAVR	0.277
VYTE	≤ 0.2
GLWT	≤ 0.2
RSKG	≤ 0.2
HTES	≤ 0.2

Variant	one-hybrid fitness for binding NBS DNA
EHMI	≤ 0.2
RGHR	≤ 0.2
QQTK	≤ 0.2
LPEF	≤ 0.2
IRHL	≤ 0.2
AVHY	≤ 0.2
WSWG	≤ 0.2
LPPL	≤ 0.2
PNVV	≤ 0.2
DAVH	≤ 0.2
RPHQ	≤ 0.2
FAIT	≤ 0.2
NPDC	≤ 0.2
WIVG	≤ 0.2
IHRW	≤ 0.2
GMDW	≤ 0.2
RQCY	≤ 0.2
AKVL	≤ 0.2
PANI	≤ 0.2
ILSN	≤ 0.2
CQQI	≤ 0.2
RRPF	≤ 0.2
SFHT	≤ 0.2
STPK	≤ 0.2

Variant	one-hybrid fitness for binding NBS DNA
LPMG	≤ 0.2
KYYL	≤ 0.2
RQNQ	≤ 0.2
RNKW	≤ 0.2
ELEG	≤ 0.2
YYKR	≤ 0.2
KKTM	≤ 0.2
KTPP	≤ 0.2
GSIT	≤ 0.2
QWKK	≤ 0.2
VVGH	≤ 0.2
QCYR	0.606
QNLF	≤ 0.2
SIKI	≤ 0.2
KPGW	≤ 0.2
PSCY	≤ 0.2
TMMN	≤ 0.2
WSRA	≤ 0.2
HFPD	≤ 0.2
PNQR	≤ 0.2
AIAA	≤ 0.2
WLAA	≤ 0.2
GYHK	≤ 0.2
ACSF	≤ 0.2

Variant	one-hybrid fitness for binding NBS DNA
ALRK	≤ 0.2
IKPS	≤ 0.2
RWAY	≤ 0.2
GFTN	≤ 0.2
AMNM	≤ 0.2
VYVS	≤ 0.2
ACFS	≤ 0.2
EIDR	≤ 0.2
CPCG	≤ 0.2
ARAT	≤ 0.2
SQKW	≤ 0.2
NMLR	≤ 0.2
FGSC	≤ 0.2
CINY	≤ 0.2
MGAC	≤ 0.2
QACM	≤ 0.2
IAWL	≤ 0.2
PTLK	≤ 0.2
AMRY	≤ 0.2
QVYS	0.202
LAPR	≤ 0.2
YLRV	≤ 0.2
ILSG	≤ 0.2
EQNS	≤ 0.2

Variant	one-hybrid fitness for binding NBS DNA
TRGA	≤ 0.2
IFWG	≤ 0.2
ALQI	≤ 0.2
DYIL	≤ 0.2
FPLG	≤ 0.2
EDDS	≤ 0.2
RMFE	≤ 0.2
WSVM	≤ 0.2
KSDS	≤ 0.2
KWRG	≤ 0.2
RNNC	≤ 0.2
KTTQ	≤ 0.2
LLHS	≤ 0.2
RRCE	≤ 0.2
AYRS	≤ 0.2
LPIK	≤ 0.2
LKLI	≤ 0.2
KMHT	≤ 0.2
TNRN	≤ 0.2
NFRV	≤ 0.2
VRWA	≤ 0.2
SGCL	≤ 0.2
SQHC	≤ 0.2
ANKT	≤ 0.2

Variant	one-hybrid fitness for binding NBS DNA
ASWI	≤ 0.2
MYGG	≤ 0.2
QCLL	≤ 0.2
PRLR	≤ 0.2
LLPF	≤ 0.2
QCRN	0.482
DITG	≤ 0.2
VVMN	≤ 0.2
RFDF	≤ 0.2
MELT	≤ 0.2
PHWT	≤ 0.2
KPMR	≤ 0.2
HHPV	≤ 0.2
PHFN	≤ 0.2
QHGM	≤ 0.2
QVAN	≤ 0.2
LKTC	≤ 0.2
RGIY	≤ 0.2
RFSI	≤ 0.2
QQIV	≤ 0.2
RNWF	≤ 0.2
AGRG	≤ 0.2
ERKT	0.248
VMPF	≤ 0.2

Variant	one-hybrid fitness for binding NBS DNA
VYYA	≤ 0.2
EGTE	≤ 0.2
ARFG	≤ 0.2
FHPT	≤ 0.2
PLMT	≤ 0.2
TYRH	≤ 0.2
TKSG	≤ 0.2
YREG	≤ 0.2
YLLA	≤ 0.2
AGRH	≤ 0.2
YRCF	≤ 0.2
SASE	≤ 0.2
QFGF	≤ 0.2
FDNS	≤ 0.2
AMLC	≤ 0.2
PLLD	≤ 0.2
IRVR	≤ 0.2
YYIR	≤ 0.2
NYPC	≤ 0.2
YRTV	≤ 0.2
GLMR	≤ 0.2
SKLV	≤ 0.2
HEKS	≤ 0.2
MGTV	≤ 0.2

Variant	one-hybrid fitness for binding NBS DNA
FPSY	≤ 0.2
AVGA	≤ 0.2
PQIF	≤ 0.2
QERG	≤ 0.2
APWR	≤ 0.2
YTRG	≤ 0.2
AVDM	≤ 0.2
HGCT	≤ 0.2
PDPG	≤ 0.2
FGQL	≤ 0.2
RRQA	0.695
FLLP	≤ 0.2
LANG	≤ 0.2
EHPR	≤ 0.2
SFMG	≤ 0.2
NNAY	≤ 0.2
PRGE	≤ 0.2
KPRY	≤ 0.2
CHDY	≤ 0.2
VQRA	≤ 0.2
REHR	≤ 0.2
AWHC	≤ 0.2
ATAV	≤ 0.2
NGSF	≤ 0.2

Variant	one-hybrid fitness for binding NBS DNA
REAI	≤ 0.2
DWCR	≤ 0.2
VKRF	≤ 0.2
IPTL	≤ 0.2
KPTS	≤ 0.2
TPAC	≤ 0.2
RDLD	≤ 0.2
DRTG	≤ 0.2
PYSN	≤ 0.2
SKEG	≤ 0.2
YHHL	≤ 0.2
WAMG	≤ 0.2
FGRS	≤ 0.2
KRMM	≤ 0.2
CSLT	≤ 0.2
EAAR	≤ 0.2
HYIS	≤ 0.2
PNLL	≤ 0.2
HYKF	≤ 0.2
AVER	≤ 0.2
SRND	≤ 0.2
VRES	≤ 0.2
CCTF	≤ 0.2
PRFR	≤ 0.2

Variant	one-hybrid fitness for binding NBS DNA
LHSR	≤ 0.2
MSSS	≤ 0.2
WKLS	≤ 0.2
RIWS	0.397
PGHN	≤ 0.2
LVAR	≤ 0.2
QYHN	≤ 0.2
QKIC	≤ 0.2
ECMT	≤ 0.2
NADT	≤ 0.2
WPFF	≤ 0.2
WYAI	≤ 0.2
DTIR	≤ 0.2
HPLT	≤ 0.2
VQAV	≤ 0.2
KVRR	0.23
ATAP	≤ 0.2
SQGC	≤ 0.2
RLKT	0.644
VKNF	≤ 0.2
QDEG	≤ 0.2
TYFT	≤ 0.2
FLVG	≤ 0.2
VYAS	≤ 0.2

Variant	one-hybrid fitness for binding NBS DNA
TTLN	≤ 0.2
CWNG	≤ 0.2
CHPY	≤ 0.2
PQEG	≤ 0.2
DALK	≤ 0.2
TSKL	≤ 0.2
QTGF	≤ 0.2
MGAR	≤ 0.2
TRSV	≤ 0.2
SYTN	≤ 0.2
VKPS	≤ 0.2
SPVL	≤ 0.2
CYRP	≤ 0.2
RFFC	≤ 0.2
QSHH	≤ 0.2
RMYT	0.417
QDMG	≤ 0.2
SHTT	≤ 0.2
